Data reported in paper PMC11952830, “Cdc42EP3-bound septin scaffolds promote actin polymerization” (The Journal of Biological Chemistry, 2025).

Legend:
Conditions in all cases: both partners purified
[1] = molecular target: T1, SEPT2/6/7 (wild type septin complex; hexamers polymerized to filaments) (UniProt Q15019 1-361; Q14141 1-434; Q16181 1-437); test: fluorescence polarisation; fluorescence anisotropy; 20 nM TMR-Cdc42EP3 fixed, SEPT2/6/7 filaments titrated; 1x KMEI, 1 mg/ml BSA; single-site fit
T1 construct: SEPT2, from a pET15-derived plasmid expressing His6-SEPT2 (gift from Elias Spiliotis); SEPT6, from a pCDF-derived plasmid expressing SEPT6 and SEPT7 (gift from Elias Spiliotis); SEPT7, from a pCDF-derived plasmid expressing SEPT6 and SEPT7 (gift from Elias Spiliotis); in the assays it stood as filaments, polymers of hexamers; also called SEPT2/6/7 filaments; septin filaments; source: E. coli …
T1 sequence (looked up) 1: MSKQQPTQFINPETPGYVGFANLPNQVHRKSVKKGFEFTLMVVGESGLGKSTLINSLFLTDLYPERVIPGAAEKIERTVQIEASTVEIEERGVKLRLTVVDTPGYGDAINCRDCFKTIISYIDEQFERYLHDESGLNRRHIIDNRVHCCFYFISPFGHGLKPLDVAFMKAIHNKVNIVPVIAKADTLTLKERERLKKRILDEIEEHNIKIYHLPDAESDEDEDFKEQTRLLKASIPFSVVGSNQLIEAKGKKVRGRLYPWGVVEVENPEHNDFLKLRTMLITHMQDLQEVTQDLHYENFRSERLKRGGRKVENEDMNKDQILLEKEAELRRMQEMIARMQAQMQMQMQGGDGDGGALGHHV
T1 sequence (looked up) 2: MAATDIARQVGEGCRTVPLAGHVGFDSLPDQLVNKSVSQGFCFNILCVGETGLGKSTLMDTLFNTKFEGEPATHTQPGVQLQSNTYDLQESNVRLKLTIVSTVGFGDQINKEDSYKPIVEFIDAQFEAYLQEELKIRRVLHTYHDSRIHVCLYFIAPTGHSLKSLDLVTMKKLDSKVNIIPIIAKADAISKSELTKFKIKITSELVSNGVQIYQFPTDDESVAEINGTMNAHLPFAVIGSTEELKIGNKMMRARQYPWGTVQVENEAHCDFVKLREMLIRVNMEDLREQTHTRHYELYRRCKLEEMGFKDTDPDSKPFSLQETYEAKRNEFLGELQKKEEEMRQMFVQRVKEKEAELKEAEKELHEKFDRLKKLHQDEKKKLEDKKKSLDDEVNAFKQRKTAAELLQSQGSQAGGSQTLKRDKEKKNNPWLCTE
T1 sequence (looked up) 3: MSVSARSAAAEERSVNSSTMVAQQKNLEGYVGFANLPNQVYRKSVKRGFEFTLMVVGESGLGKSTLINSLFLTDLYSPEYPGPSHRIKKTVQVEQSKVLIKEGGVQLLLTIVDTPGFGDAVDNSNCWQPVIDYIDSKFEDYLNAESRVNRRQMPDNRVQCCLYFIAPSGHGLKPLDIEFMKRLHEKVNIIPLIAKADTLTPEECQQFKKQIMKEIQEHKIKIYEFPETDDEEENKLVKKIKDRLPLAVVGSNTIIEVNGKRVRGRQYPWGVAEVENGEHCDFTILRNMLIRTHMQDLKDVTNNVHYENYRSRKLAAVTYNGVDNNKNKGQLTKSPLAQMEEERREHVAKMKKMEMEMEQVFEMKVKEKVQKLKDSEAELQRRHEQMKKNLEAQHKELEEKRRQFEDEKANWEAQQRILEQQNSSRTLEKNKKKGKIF

actin (rabbit muscle) [2] = molecular target: T2, actin (rabbit muscle) (rabbit, UniProt P68135); test: fluorescence polarisation; fluorescence anisotropy; 20 nM TMR-Cdc42EP3 fixed, actin monomer titrated with 20 uM Latrunculin A; 1x KMEI, 1 mg/ml BSA; single-site fit
actin (rabbit muscle) [3] = molecular target: T2, actin (rabbit muscle); test: fluorescence polarisation; fluorescence anisotropy; 20 nM TMR-labeled Cdc42EP3 or variant fixed, actin filaments (polymerized in 1x KMEI) titrated; 1 mg/ml BSA; single-site fit

- Kd [1]: 0.4 µM
- Kd (actin (rabbit muscle) [2]): 1.2 µM
- Kd (actin (rabbit muscle) [3]): 1.7 µM
B1: Cdc42EP3 labeled with tetramethylrhodamine (TMR) at C211 (natural protein)
chain: not shown
modifications: tetramethylrhodamine (TMR-5-maleimide) at C211
notes: Cdc42EP3 (BORG2), human, single-cysteine construct whose unique cysteine is C211; also called Cdc42EP3-TMR F.A. probe; TMR labeled Cdc42EP3; source: E. coli BL21(DE3)-T1R, purified (amylose, TEV cleavage, Mono S), labeled with TMR-5-maleimide, Superdex 200; not shown: MBP, N-terminal, cleaved
